# Assay results published in US11618753B2 (priority 2018, dated 2023).
# Test system: MLKL phosphorylation, HT29-L23 human colorectal adenocarcinoma cells
# Assay: cells
# Details: read-out: pMLKL HCS Cell Assay (IC50, uM)
row,SMILES,IC50 [µM]
1,"Cc1nc(C)c(-c2cc(C(F)(F)F)c3c(N)ncnn23)cc1C(=O)N[C@@H]1CN(C(=O)CC(O)(C(F)(F)F)C(F)(F)F)C[C@@H]1F [Example 1201, 5-[4-amino-5-(trifluoromethyl)pyrrolo[2,1-f][1,2,4]triazin-7-yl]-N-[(3R,4S)-4-fluoro-1-[4,4,4-trifluoro-3-hydroxy-3-(trifluoromethyl)butanoyl]pyrrolidin-3-yl]-2,6-dimethylpyridine-3-carboxamide]",0.015
2,"COc1ncc(-c2cc(C(F)(F)F)c3c(N)ncnn23)cc1C(=O)N[C@@H]1CN(C(=O)CC2CC(F)(F)C2)C[C@@H]1F [Example 1202, 5-[4-amino-5-(trifluoromethyl)pyrrolo[2,1-f][1,2,4]triazin-7-yl]-N-[(3R,4S)-1-[2-(3,3-difluorocyclobutyl)acetyl]-4-fluoropyrrolidin-3-yl]-2-methoxypyridine-3-carboxamide]",0.04
3,"COc1ncc(-c2cc(C(F)(F)F)c3c(N)ncnn23)cc1C(=O)N[C@@H]1CN(C(=O)CC2CCCC2)C[C@@H]1F [Example 1203, 5-[4-amino-5-(trifluoromethyl)pyrrolo[2,1-f][1,2,4]triazin-7-yl]-N-[(3R,4S)-1-(2-cyclopentylacetyl)-4-fluoropyrrolidin-3-yl]-2-methoxypyridine-3-carboxamide]",0.025
4,"COc1ncc(-c2cc(C(F)(F)F)c3c(N)ncnn23)cc1C(=O)N[C@@H]1CN(C(=O)CC2CCC2)C[C@@H]1F [Example 1204, 5-[4-amino-5-(trifluoromethyl)pyrrolo[2,1-f][1,2,4]triazin-7-yl]-N-[(3R,4S)-1-(2-cyclobutylacetyl)-4-fluoropyrrolidin-3-yl]-2-methoxypyridine-3-carboxamide]",0.034
5,"COc1ncc(-c2cc(C(F)(F)F)c3c(N)ncnn23)cc1C(=O)N[C@@H]1CN(C(=O)CC2CC2(F)F)C[C@@H]1F (stereo partly drawn) [Example 1205, 5-[4-amino-5-(trifluoromethyl)pyrrolo[2,1-f][1,2,4]triazin-7-yl]-N-[(3R,4S)-1-[2-(2,2-difluorocyclopropyl)acetyl]-4-fluoropyrrolidin-3-yl]-2-methoxypyridine-3-carboxamide]",0.046
6,"COc1ncc(-c2cc(C(F)(F)F)c3c(N)ncnn23)cc1C(=O)N[C@@H]1CN(C(=O)CC2CC2)C[C@@H]1F [Example 1206, 5-[4-amino-5-(trifluoromethyl)pyrrolo[2,1-f][1,2,4]triazin-7-yl]-N-[(3R,4S)-1-(2-cyclopropylacetyl)-4-fluoropyrrolidin-3-yl]-2-methoxypyridine-3-carboxamide]",0.04
7,"COc1ncc(-c2cc(C(F)(F)F)c3c(N)ncnn23)cc1C(=O)N[C@@H]1CN(C(=O)CC2(C)CC2)C[C@@H]1F [Example 1207, 5-[4-amino-5-(trifluoromethyl)pyrrolo[2,1-f][1,2,4]triazin-7-yl]-N-[(3R,4S)-4-fluoro-1-[2-(1-methylcyclopropyl)acetyl]pyrrolidin-3-yl]-2-methoxypyridine-3-carboxamide]",0.024
8,"COc1ncc(-c2cc(C(F)(F)F)c3c(N)ncnn23)cc1C(=O)N[C@@H]1CN(C(=O)CC2(O)CCCCC2)C[C@@H]1F [Example 1208, 5-[4-amino-5-(trifluoromethyl)pyrrolo[2,1-f][1,2,4]triazin-7-yl]-N-[(3R,4S)-4-fluoro-1-[2-(1-hydroxycyclohexyl)acetyl]pyrrolidin-3-yl]-2-methoxypyridine-3-carboxamide]",0.216
9,"COc1ncc(-c2cc(C(F)(F)F)c3c(N)ncnn23)cc1C(=O)N[C@@H]1CN(C(=O)c2cccnn2)C[C@@H]1F [Example 1210, 5-[4-amino-5-(trifluoromethyl)pyrrolo[2,1-f][1,2,4]triazin-7-yl]-N-[(3R,4S)-4-fluoro-1-(pyridazine-3-carbonyl)pyrrolidin-3-yl]-2-methoxypyridine-3-carboxamide]",0.264
10,"COc1ncc(C(=O)N2C[C@H](F)[C@H](NC(=O)c3cc(-c4cc(C(F)(F)F)c5c(N)ncnn45)cnc3OC)C2)cn1 [Example 1211, 5-[4-amino-5-(trifluoromethyl)pyrrolo[2,1-f][1,2,4]triazin-7-yl]-N-[(3R,4S)-4-fluoro-1-(2-methoxypyrimidine-5-carbonyl)pyrrolidin-3-yl]-2-methoxypyridine-3-carboxamide]",0.116
11,"COc1ncc(-c2cc(C(F)(F)F)c3c(N)ncnn23)cc1C(=O)N[C@@H]1CN(C(=O)c2cncc(C)n2)C[C@@H]1F [Example 1212, 5-[4-amino-5-(trifluoromethyl)pyrrolo[2,1-f][1,2,4]triazin-7-yl]-N-[(3R,4S)-4-fluoro-1-(6-methylpyrazine-2-carbonyl)pyrrolidin-3-yl]-2-methoxypyridine-3-carboxamide]",0.074
12,"COc1ncc(-c2cc(C(F)(F)F)c3c(N)ncnn23)cc1C(=O)N[C@@H]1CN(C(=O)c2cnc(C)cn2)C[C@@H]1F [Example 1213, 5-[4-amino-5-(trifluoromethyl)pyrrolo[2,1-f][1,2,4]triazin-7-yl]-N-[(3R,4S)-4-fluoro-1-(5-methylpyrazine-2-carbonyl)pyrrolidin-3-yl]-2-methoxypyridine-3-carboxamide]",0.02
13,"COc1ncc(-c2cc(C(F)(F)F)c3c(N)ncnn23)cc1C(=O)N[C@@H]1CN(C(=O)c2cnc(C)nc2)C[C@@H]1F [Example 1214, 5-[4-amino-5-(trifluoromethyl)pyrrolo[2,1-f][1,2,4]triazin-7-yl]-N-[(3R,4S)-4-fluoro-1-(2-methylpyrimidine-5-carbonyl)pyrrolidin-3-yl]-2-methoxypyridine-3-carboxamide]",0.181
14,"COc1ncc(-c2cc(C(F)(F)F)c3c(N)ncnn23)cc1C(=O)N[C@@H]1CN(C(=O)c2cnnc(Cl)c2)C[C@@H]1F [Example 1215, 5-[4-amino-5-(trifluoromethyl)pyrrolo[2,1-f][1,2,4]triazin-7-yl]-N-[(3R,4S)-1-(6-chloropyridazine-4-carbonyl)-4-fluoropyrrolidin-3-yl]-2-methoxypyridine-3-carboxamide]",0.076
15,"COc1ncc(-c2cc(C(F)(F)F)c3c(N)ncnn23)cc1C(=O)N[C@@H]1CN(C(=O)CC2CCCCC2)C[C@@H]1F [Example 1216, 5-[4-amino-5-(trifluoromethyl)pyrrolo[2,1-f][1,2,4]triazin-7-yl]-N-[(3R,4S)-1-(2-cyclohexylacetyl)-4-fluoropyrrolidin-3-yl]-2-methoxypyridine-3-carboxamide]",0.048
16,"COc1ncc(-c2cc(C(F)(F)F)c3c(N)ncnn23)cc1C(=O)N[C@@H]1CN(C(=O)C(C)(C)OCC(F)F)C[C@@H]1F [Example 1217, 5-[4-amino-5-(trifluoromethyl)pyrrolo[2,1-f][1,2,4]triazin-7-yl]-N-[(3R,4S)-1-[2-(2,2-difluoroethoxy)-2-methylpropanoyl]-4-fluoropyrrolidin-3-yl]-2-methoxypyridine-3-carboxamide]",0.067
17,"COc1ncc(-c2cc(C(F)(F)F)c3c(N)ncnn23)cc1C(=O)N[C@@H]1CN(C(=O)COC(C)(C)C)C[C@@H]1F [Example 1218, 5-[4-amino-5-(trifluoromethyl)pyrrolo[2,1-f][1,2,4]triazin-7-yl]-N-[(3R,4S)-1-[2-(tert-butoxy)acetyl]-4-fluoropyrrolidin-3-yl]-2-methoxypyridine-3-carboxamide]",0.098
18,"COc1ncc(-c2cc(C(F)(F)F)c3c(N)ncnn23)cc1C(=O)N[C@@H]1CN(C(=O)[C@@](OC)(c2ccccc2)C(F)(F)F)C[C@@H]1F [Example 1219, 5-[4-amino-5-(trifluoromethyl)pyrrolo[2,1-f][1,2,4]triazin-7-yl]-N-[(3R,4S)-4-fluoro-1-[(2S)-3,3,3-trifluoro-2-methoxy-2-phenylpropanoyl]pyrrolidin-3-yl]-2-methoxypyridine-3-carboxamide]",0.27
19,"COc1ncc(-c2cc(C(F)(F)F)c3c(N)ncnn23)cc1C(=O)N[C@@H]1CN(C(=O)CC(O)(C(F)(F)F)C(F)(F)F)C[C@@H]1F [Example 1220, 5-[4-amino-5-(trifluoromethyl)pyrrolo[2,1-f][1,2,4]triazin-7-yl]-N-[(3R,4S)-4-fluoro-1-[4,4,4-trifluoro-3-hydroxy-3-(trifluoromethyl)butanoyl]pyrrolidin-3-yl]-2-methoxypyridine-3-carboxamide]",0.0023
20,"COc1ncc(-c2cc(C(F)(F)F)c3c(N)ncnn23)cc1C(=O)N[C@@H]1CN(C(=O)CC(C)C(F)(F)F)C[C@@H]1F (stereo partly drawn) [Example 1221, 5-[4-amino-5-(trifluoromethyl)pyrrolo[2,1-f][1,2,4]triazin-7-yl]-N-[(3R,4S)-4-fluoro-1-(4,4,4-trifluoro-3-methylbutanoyl)pyrrolidin-3-yl]-2-methoxypyridine-3-carboxamide]",0.0039
21,"COc1ncc(-c2cc(C(F)(F)F)c3c(N)ncnn23)cc1C(=O)N[C@@H]1CN(C(=O)CC(C(F)(F)F)C(F)(F)F)C[C@@H]1F [Example 1222, 5-[4-amino-5-(trifluoromethyl)pyrrolo[2,1-f][1,2,4]triazin-7-yl]-N-[(3R,4S)-4-fluoro-1-[4,4,4-trifluoro-3-(trifluoromethyl)butanoyl]pyrrolidin-3-yl]-2-methoxypyridine-3-carboxamide]",0.0047
22,"COc1ncc(-c2cc(C(F)(F)F)c3c(N)ncnn23)cc1C(=O)N[C@@H]1CN(C(=O)C2CC23CC3)C[C@@H]1F (stereo partly drawn) [Example 1223, 5-[4-amino-5-(trifluoromethyl)pyrrolo[2,1-f][1,2,4]triazin-7-yl]-N-[(3R,4S)-4-fluoro-1-{spiro[2.2]pentane-1-carbonyl}pyrrolidin-3-yl]-2-methoxypyridine-3-carboxamide]",0.041
23,"COc1ncc(-c2cc(C(F)(F)F)c3c(N)ncnn23)cc1C(=O)N[C@@H]1CN(C(=O)CC(C)(O)C(F)(F)F)C[C@@H]1F (stereo partly drawn) [Example 1224, 5-[4-amino-5-(trifluoromethyl)pyrrolo[2,1-f][1,2,4]triazin-7-yl]-N-[(3R,4S)-4-fluoro-1-(4,4,4-trifluoro-3-hydroxy-3-methylbutanoyl)pyrrolidin-3-yl]-2-methoxypyridine-3-carboxamide]",0.0091
24,"COc1ncc(-c2cc(C(F)(F)F)c3c(N)ncnn23)cc1C(=O)N[C@@H]1CN(C(=O)C(C)C(F)(F)F)C[C@@H]1F (stereo partly drawn) [Example 1225, 5-[4-amino-5-(trifluoromethyl)pyrrolo[2,1-f][1,2,4]triazin-7-yl]-N-[(3R,4S)-4-fluoro-1-(3,3,3-trifluoro-2-methylpropanoyl)pyrrolidin-3-yl]-2-methoxypyridine-3-carboxamide]",0.0088
